# ± gives the standard deviation of the averaged measurements. Whole data set: some 33,000 sequences, median “E-score (dimensionless, -0.5 to 0.5)” near -0.049, cut for the highest 2% near 0.37. Some of the results follow.
# Test system: T1, PmTbr T-box DNA-binding domain (GST fusion)
# T1 sequence: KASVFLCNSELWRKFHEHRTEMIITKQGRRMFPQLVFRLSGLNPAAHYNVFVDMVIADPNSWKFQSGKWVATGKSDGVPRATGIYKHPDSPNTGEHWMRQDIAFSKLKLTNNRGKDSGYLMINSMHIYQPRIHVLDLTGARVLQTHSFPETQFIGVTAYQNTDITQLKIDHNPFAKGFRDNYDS
# Experiment: PBM E-score of 8-mer (E-score (dimensionless, -0.5 to 0.5)); Tbr is Tbrain of the sea star Patiria miniata (Pm) or the sea urchin Strongylocentrotus purpuratus (Sp); higher = stronger binding preference; most listed sequences are background and not binding sites
# Conditions: the construct has about 5 more residues each side
# Method in brief: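 Each ungapped 8-mer received an enrichment E-score from the Universal PBM Analysis Suite, averaged over duplicate arrays. The proteins were Tbr T-box DNA-binding domains, covering the whole T-box plus about five flanking residues, fused to GST and expressed in BL21 E. coli at 20 °C before glutathione affinity purification. Universal Agilent oligonucleotide arrays were made double-stranded by primer extension and incubated with 200 nM protein in PBS (pH 7.5). The arrays were then scanned and quantified, and every 8-mer was scored from probe intensities.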
row,Sequence,PBM E-score of 8-mer
1,CAACTATC,0.0849 ± 0.039
2,GCCACAGA,-0.00231 ± 0.073
3,CAACAAGG,0.0409 ± 0.046
4,CTGTGCAC,0.0968 ± 0.0069
5,AAAAATGA,-0.0842 ± 0.076
6,AACAGTGT,0.224 ± 0.048
7,AGCCACAT,-0.0747 ± 0.023
8,CGCGACAA,0.336 ± 0.0038
9,CCCATTTA,0.0289 ± 0.005
10,CACAAGCC,-0.0612 ± 0.095
11,CGACGATC,-0.0963 ± 0.064
12,ACGTCACT,0.2087 ± 0.0019
13,CTCACTTC,0.264 ± 0.0028
14,GATTTGGC,0.249 ± 0.01
15,AGCATAGA,-0.107 ± 0.065
16,ATGCCCGA,0.0118 ± 0.085
17,TAATATTA,-0.139 ± 0.049
18,CCTCTCGC,0.222 ± 0.013
19,ATCGCAAT,0.136 ± 0.061
20,CGGCGCAA,-0.108 ± 0.011
21,CCACATAA,-0.0596 ± 0.046
22,CTTCTTTC,-0.208 ± 0.021
23,GCGCGAGA,0.357 ± 0.014
24,CGTCAAGA,0.162 ± 0.068
25,TAGACCTA,-0.256 ± 0.031

row,Sequence,PBM E-score of 8-mer
1,GCTTAAGC,-0.292 ± 0.0039
2,CTCGGATA,-0.214 ± 0.025
3,CGTAAACC,-0.157 ± 0.028
4,ATGGGGTC,-0.228 ± 0.015
5,TGAGGTAA,-0.0864 ± 0.037
6,AAAGGAGG,-0.165 ± 0.035
7,CAATAATC,-0.0282 ± 0.026
8,CGAGGGCC,-0.193 ± 0.054
9,ATGATCAT,-0.111 ± 0.024
10,GATACACC,0.149 ± 0.072
11,AGGCCGGA,-0.191 ± 0.011
12,ACGAACGT,0.0835 ± 0.007
13,CATAGACG,-0.0237 ± 0.038
14,GAAGTCTC,0.102 ± 0.062
15,CGGAAACA,-0.089 ± 0.047
16,CATGTTAA,0.0464 ± 0.07
17,ATCCCGAG,-0.13 ± 0.051
18,ATTAGGCC,-0.314 ± 0.016
19,GAGGAATA,-0.274 ± 0.02
20,AATCATCG,0.0556 ± 0.04
21,GGGCGACA,0.305 ± 0.024
22,GCCGCGAC,0.0997 ± 0.071
23,TAGAATGA,0.0191 ± 0.0097
24,ACTTTTTG,0.233 ± 0.061
25,GTACTACA,-0.136 ± 0.045

row,Sequence,PBM E-score of 8-mer
1,ACCAGTCC,-0.0849 ± 0.0027
2,AGCTACTA,-0.148 ± 0.016
3,CACTTGAC,0.338 ± 0.033
4,GACTTATC,-0.0556 ± 0.021
5,CGGTCCAC,-0.155 ± 0.0022
6,AAGAGCCG,-0.104 ± 0.013
7,GGGCACGA,-0.153 ± 0.021
8,GCCCCGGC,-0.356 ± 0.021
9,AGAGACGC,-0.246 ± 0.01
10,CGGTTGAA,-0.16 ± 0.04
11,GCTATGCA,-0.125 ± 0.016
12,AGTGGAGG,-0.0432 ± 0.017
13,ATCGGAGG,-0.0779 ± 0.0076
14,ACATGCGG,-0.0519 ± 0.054
15,ATTCTCAC,0.435 ± 0.017
16,GTACAGGA,-0.327 ± 0.024
17,ACGCCGTG,0.234 ± 0.027
18,ACTGTAAT,-0.0745 ± 0.04
19,ATCTACTC,-0.321 ± 0.0036
20,CTAGAGCA,-0.154 ± 0.046
21,AGATATGG,-0.26 ± 0.047
22,CCTGTAAA,0.0528 ± 0.045
23,CCCTGAAA,-0.058 ± 0.0072
24,AAAGCCAA,-0.217 ± 0.011
25,CCACGAGC,-0.0272 ± 0.08

row,Sequence,PBM E-score of 8-mer
1,ACTTTTAA,-0.264 ± 0.016
2,AGTTTCCC,-0.116 ± 0.012
3,CGCGAAGA,0.363 ± 0.011
4,GATCGGGC,-0.106 ± 0.071
5,ACCGCGCT,0.0428 ± 0.014
6,ACTGCGGA,-0.259 ± 0.0077
7,CCGACTGC,-0.0802 ± 0.031
8,ACTCAGCT,-0.0519 ± 0.0062
9,ATCTGCAA,-0.12 ± 0.016
10,AGGAACGA,-0.141 ± 0.068
11,ACTCTCGC,0.2 ± 0.069
12,CAGACTTC,-0.202 ± 0.016
13,AGCACGCC,0.0358 ± 0.042
14,AGGAGGTA,-0.0739 ± 0.034
15,GCAGACAA,-0.0224 ± 0.054
16,ATTTTAGA,-0.0317 ± 0.08
17,GGTCCAAA,-0.116 ± 0.0032
18,AGACCCAC,0.0312 ± 0.0042
19,ATGGGTTA,-0.00983 ± 0.068
20,GGCCCGAA,-0.228 ± 0.055
21,AGAGAGAT,-0.138 ± 0.032
22,CCGCTTCA,0.00946 ± 0.017
23,ATGTACAT,-0.141 ± 0.055
24,CGTACCAG,-0.184 ± 0.022
25,AGCCGTCA,0.161 ± 0.0066

row,Sequence,PBM E-score of 8-mer
1,TTGGACAA,-0.0267 ± 0.083
2,AACCATGG,-0.00506 ± 0.043
3,AGCCACGG,-0.119 ± 0.013
4,AGATCGTA,0.0776 ± 0.06
5,ATGGTAAT,-0.145 ± 0.033
6,CAGTGCAG,-0.188 ± 0.01
7,ACGCACGC,0.0524 ± 0.077
8,CGTAGCCA,-0.224 ± 0.017
9,CTAGGTGA,0.398 ± 0.014
10,GCGCTTGA,-0.0391 ± 0.02
11,ACTGAAGG,-0.0601 ± 0.011
12,AAACCTGA,0.0859 ± 0.12
13,ATATTACA,0.11 ± 0.012
14,AGTCTAGC,-0.096 ± 0.025
15,GACATCCC,-0.0596 ± 0.038
16,AATATAAA,-0.136 ± 0.075
17,GAATCGTC,-0.134 ± 0.0042
18,CTTGGTAA,-0.0337 ± 0.0022
19,CGGTTGGC,0.0524 ± 0.0091
20,GGCAGAAC,-0.108 ± 0.021
21,ATTCGAGG,-0.0453 ± 0.059
22,CTCAACAA,-0.0469 ± 0.016
23,ATCTTTGG,-0.0524 ± 0.014
24,GATCCTAA,-0.0882 ± 0.11
25,CCAGAGGG,-0.293 ± 0.04

row,Sequence,PBM E-score of 8-mer
1,ACAGGCAT,-0.00683 ± 0.051
2,AGCCGGAG,-0.116 ± 0.1
3,AGGATCGA,0.0479 ± 0.045
4,CCTGAACC,-0.233 ± 0.068
5,GTATACAC,-0.0081 ± 0.0025
6,CCATGTCA,0.0353 ± 0.054
7,GGCAGCCC,-0.155 ± 0.029
8,GAAGGCAC,0.0792 ± 0.019
9,AGCAAGCG,-0.0283 ± 0.0063
10,CCTTGGAC,-0.13 ± 0.0035
11,CTTAGTGC,0.109 ± 0.052
12,GGGGACAC,0.0834 ± 0.069
13,GTTGCGCA,0.038 ± 0.051
14,TGTCCAAA,-0.0314 ± 0.019
15,GTGTCCGA,0.169 ± 0.013
16,AAGACCTT,-0.285 ± 0.011
17,ATTCCGTC,0.0347 ± 0.046
18,CACCGGGC,-0.108 ± 0.015
19,GGGGGTGA,0.2941 ± 0.0011
20,AACCCACT,-0.167 ± 0.0074
21,AGGAGGAT,-0.124 ± 0.071
22,AAGCCTAC,-0.215 ± 0.039
23,ACCAGCCT,-0.14 ± 0.082
24,GCTTGTCC,-0.134 ± 0.0022
25,CCAGCGAG,0.0399 ± 0.024

row,Sequence,PBM E-score of 8-mer
1,CCCGCTTC,0.153 ± 0.043
2,GTTAAAAA,0.0142 ± 0.12
3,ATCAATTC,0.0567 ± 0.048
4,CTTGGAAA,-0.0932 ± 0.023
5,GCCACCGA,0.047 ± 0.0033
6,AGACCGAC,0.0123 ± 0.075
7,ACGTTATC,0.0382 ± 0.014
8,AGCACTGA,0.131 ± 0.018
9,AACAGCCT,0.145 ± 0.021
10,ATCCTGAC,-0.00634 ± 0.065
11,CCCAGGGA,-0.231 ± 0.034
12,TGGAGTAA,-0.0512 ± 0.084
13,CGAAATCC,-0.0303 ± 0.045
14,CGCTAACA,0.351 ± 0.0051
15,CGAGTATA,-0.0319 ± 0.0045
16,ACATATGC,0.0165 ± 0.035
17,TCTTGCAA,0.157 ± 0.0081
18,ATATTTTA,-0.142 ± 0.096
19,ATCAGTAG,-0.16 ± 0.021
20,ATCCGACC,-0.294 ± 0.032
21,AGGTAAAG,-0.00262 ± 0.00052
22,ACTGCGCA,-0.0512 ± 0.015

# Reference: the supplement of paper PMC4166925
